These are yes or no findings as the source states them, for the method shown. Binding seen in cells or lysates may run through a third protein. Some binding calls cover weakened binding; strength is not graded here. Where a sequence is shown, tags or fusion partners need not be part of it.
What was measured:
[1] = target: T1, Flag-NPPS (human NPPS with a C-terminal 3 × Flag) (human) (UniProt P22413); experiment: co-IP; PC9 cells expressing Flag-NPPS or empty vector; NP-40 lysates with anti-FLAG M2 magnetic beads at 4 °C overnight; Western blot for HK1
T1 sequence: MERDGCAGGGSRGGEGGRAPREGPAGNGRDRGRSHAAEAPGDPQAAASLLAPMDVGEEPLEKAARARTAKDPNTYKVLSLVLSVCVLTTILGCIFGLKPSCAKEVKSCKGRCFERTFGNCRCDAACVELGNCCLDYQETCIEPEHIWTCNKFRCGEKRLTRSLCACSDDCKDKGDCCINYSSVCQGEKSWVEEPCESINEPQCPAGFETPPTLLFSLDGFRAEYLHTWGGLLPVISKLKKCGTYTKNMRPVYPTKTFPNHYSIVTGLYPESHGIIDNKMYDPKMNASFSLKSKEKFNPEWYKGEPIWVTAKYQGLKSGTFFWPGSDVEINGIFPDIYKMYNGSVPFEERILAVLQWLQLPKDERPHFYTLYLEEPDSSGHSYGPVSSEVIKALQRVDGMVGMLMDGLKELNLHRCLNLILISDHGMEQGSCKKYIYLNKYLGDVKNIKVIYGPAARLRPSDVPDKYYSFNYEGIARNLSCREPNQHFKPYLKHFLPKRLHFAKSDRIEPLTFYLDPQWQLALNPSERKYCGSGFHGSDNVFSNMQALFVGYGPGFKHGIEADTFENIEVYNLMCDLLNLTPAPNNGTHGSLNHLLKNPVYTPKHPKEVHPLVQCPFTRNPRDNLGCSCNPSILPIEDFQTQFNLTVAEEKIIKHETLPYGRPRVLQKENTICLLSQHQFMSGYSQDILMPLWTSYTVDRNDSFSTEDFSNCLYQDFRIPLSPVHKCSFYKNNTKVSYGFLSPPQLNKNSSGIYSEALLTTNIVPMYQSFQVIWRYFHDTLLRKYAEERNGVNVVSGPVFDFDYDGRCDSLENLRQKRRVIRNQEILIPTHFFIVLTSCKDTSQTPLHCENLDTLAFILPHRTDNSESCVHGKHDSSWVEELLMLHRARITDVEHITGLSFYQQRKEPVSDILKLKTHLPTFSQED

[2] = target: T1, Flag-NPPS (human NPPS with a C-terminal 3 × Flag) (human); experiment: co-IP; HEK293T cells expressing Flag-NPPS or empty vector; NP-40 lysates with anti-FLAG M2 magnetic beads at 4 °C overnight; Western blot for HK1

B1: HK1 in HEK293T and PC9 cells expressing Flag-NPPS (Fig. S5a, b) (protein, UniProt P19367-1 1-917)
chain: MIAAQLLAYYFTELKDDQVKKIDKYLYAMRLSDETLIDIMTRFRKEMKNGLSRDFNPTATVKMLPTFVRSIPDGSEKGDFIALDLGGSSFRILRVQVNHEKNQNVHMESEVYDTPENIVHGSGSQLFDHVAECLGDFMEKRKIKDKKLPVGFTFSFPCQQSKIDEAILITWTKRFKASGVEGADVVKLLNKAIKKRGDYDANIVAVVNDTVGTMMTCGYDDQHCEVGLIIGTGTNACYMEELRHIDLVEGDEGRMCINTEWGAFGDDGSLEDIRTEFDREIDRGSLNPGKQLFEKMVSGMYLGELVRLILVKMAKEGLLFEGRITPELLTRGKFNTSDVSAIEKNKEGLHNAKEILTRLGVEPSDDDCVSVQHVCTIVSFRSANLVAATLGAILNRLRDNKGTPRLRTTVGVDGSLYKTHPQYSRRFHKTLRRLVPDSDVRFLLSESGSGKGAAMVTAVAYRLAEQHRQIEETLAHFHLTKDMLLEVKKRMRAEMELGLRKQTHNNAVVKMLPSFVRRTPDGTENGDFLALDLGGTNFRVLLVKIRSGKKRTVEMHNKIYAIPIEIMQGTGEELFDHIVSCISDFLDYMGIKGPRMPLGFTFSFPCQQTSLDAGILITWTKGFKATDCVGHDVVTLLRDAIKRREEFDLDVVAVVNDTVGTMMTCAYEEPTCEVGLIVGTGSNACYMEEMKNVEMVEGDQGQMCINMEWGAFGDNGCLDDIRTHYDRLVDEYSLNAGKQRYEKMISGMYLGEIVRNILIDFTKKGFLFRGQISETLKTRGIFETKFLSQIESDRLALLQVRAILQQLGLNSTCDDSILVKTVCGVVSRRAAQLCGAGMAAVVDKIRENRGLDRLNVTVGVDGTLYKLHPHFSRIMHQTVKELSPKCNVSFLLSEDGSGKGAALITAVGVRLRTEASS
[1]
  binding: binds
[2]
  binding: binds
